Results as given in publication PMC4336329 (PLoS ONE, 2015).
In all, about 310,000 compounds went through this assay and about 14,000 (4.5%) showed an effect of 50% or more. Effects have a minus sign here. This is one part of the list.

Biological target: human ether-à-go-go-related gene (hERG) potassium channel (human, UniProt Q12809)
Assay: primary screen, population patch clamp on CHO cells stably expressing hERG
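Further: peak tail current of the secondary pulse compared with the same well before compound.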

human ether-à-go-go-related gene (hERG) potassium channel, sequence (Q12809 whole entry, looked up): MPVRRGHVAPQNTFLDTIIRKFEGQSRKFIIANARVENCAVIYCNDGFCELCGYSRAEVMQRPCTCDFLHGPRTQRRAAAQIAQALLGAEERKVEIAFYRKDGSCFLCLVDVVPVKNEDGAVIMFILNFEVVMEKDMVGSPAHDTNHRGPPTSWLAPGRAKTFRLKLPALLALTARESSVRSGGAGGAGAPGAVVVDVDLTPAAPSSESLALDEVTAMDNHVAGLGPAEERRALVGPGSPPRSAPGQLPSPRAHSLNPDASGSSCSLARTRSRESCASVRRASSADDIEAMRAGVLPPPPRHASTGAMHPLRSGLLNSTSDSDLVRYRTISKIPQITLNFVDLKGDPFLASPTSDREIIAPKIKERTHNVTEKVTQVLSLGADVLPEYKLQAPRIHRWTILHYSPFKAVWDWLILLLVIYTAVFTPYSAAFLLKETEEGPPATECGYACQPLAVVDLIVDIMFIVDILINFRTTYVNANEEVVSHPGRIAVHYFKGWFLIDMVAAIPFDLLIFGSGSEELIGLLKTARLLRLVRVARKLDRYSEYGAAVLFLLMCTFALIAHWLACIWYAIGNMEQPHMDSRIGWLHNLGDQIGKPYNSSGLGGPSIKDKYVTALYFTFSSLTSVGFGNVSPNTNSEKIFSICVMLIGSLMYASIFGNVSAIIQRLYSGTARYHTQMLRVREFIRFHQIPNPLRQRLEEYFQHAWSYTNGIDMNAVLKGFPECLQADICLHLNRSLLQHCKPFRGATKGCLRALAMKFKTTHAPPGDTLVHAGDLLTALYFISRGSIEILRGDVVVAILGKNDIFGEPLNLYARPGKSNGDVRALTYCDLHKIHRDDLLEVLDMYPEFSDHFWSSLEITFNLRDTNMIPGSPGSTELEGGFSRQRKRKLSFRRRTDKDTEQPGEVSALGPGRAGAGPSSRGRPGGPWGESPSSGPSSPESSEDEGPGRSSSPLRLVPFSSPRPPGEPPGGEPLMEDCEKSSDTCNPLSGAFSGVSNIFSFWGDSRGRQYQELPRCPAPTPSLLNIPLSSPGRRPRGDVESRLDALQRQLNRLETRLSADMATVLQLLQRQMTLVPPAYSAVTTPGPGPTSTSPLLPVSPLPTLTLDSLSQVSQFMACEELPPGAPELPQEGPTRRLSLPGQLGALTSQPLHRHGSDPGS

SMILES	hERG current change (%, negative = inhibition) at 10uM [%]
CCOc1ccc(S(=O)(=O)N2CCC(c3ccccc3)CC2)cc1C(=O)O	18.2
COc1cccc(C(=O)NNC(=O)c2sccc2-n2cccc2)c1	24.7
COc1ccc(C2CC(=O)C3=C(C2)Nc2ccccc2N(C(C)=O)C3c2ccco2)cc1 (centres unmarked)	-35.8
COC(=O)c1ccc(CN2CCN(C3CCCCC3)C(CCO)C2)cc1 (centres unmarked)	-22.9
CN(C)c1c([N+](=O)[O-])cc2[nH]c(=O)[nH]c2c1[N+](=O)[O-]	-9.83
Cc1cc(-n2nc3ccccc3n2)c(O)c([N+](=O)[O-])c1	6.11
COc1ccc(CNC(=O)C(c2ccco2)N(C(=O)CNS(=O)(=O)c2ccccc2)c2ccccc2C)cc1 (centres unmarked)	-12.6
CN1c2ccccc2C(=O)/C(=C\Nc2ccc(F)cc2)S1(=O)=O	0.835
COCCCN1C(=O)C(=O)/C(=C(/O)c2ccc(OC)cc2)C12C(=O)N(C)c1ccccc12 (centres unmarked)	6.06
CC/C=C(/NC(C)=O)c1ccccc1	13
c1ccc(-c2nnc3sc(CN4CCC5(CC4)OCCO5)cn23)cc1	-20.6
Cn1c(SCC(=O)Nc2cccc(F)c2)nc2c([nH]c3ccccc32)c1=O	17.9
CCCC(=O)NNC(=O)CC(=O)Nc1ccccc1C(=O)O	7.79
C=CCn1c(=O)c2c(nc(Br)n2Cc2ccccc2Cl)n(C)c1=O	-9.64
Cc1ccc(NC(=O)c2sc(N)nc2-c2ccc([N+](=O)[O-])cc2)c(C)c1	2.18
O=C(CNCc1ccc(Cl)cc1)N1CCc2ccccc2C1	-44.7
COc1ccc(C2NC(=O)CCC2[N+](=O)[O-])c(OC)c1OC (centres unmarked)	12.2
C=CCNc1oc(-c2ccco2)nc1S(=O)(=O)c1ccccc1	-4.58
COc1ccc(S(=O)(=O)N2CCCC2)cc1Br	6.83

SMILES	hERG current change (%, negative = inhibition) at 10uM [%]
O=C(NCc1cccnc1)c1ccccc1NS(=O)(=O)c1ccccc1	9.45
COc1ccccc1Nc1c2c(nc3ccccc13)CCC2	-45.6
O=C1NC(c2ccccc2)C(C(=O)c2cccs2)=C1O (centres unmarked)	21.9
Cc1ccc(OC(=O)c2cccc(C(=O)Oc3ccc(C)cc3)n2)cc1	15.2
CC(NC(=O)C(C)N1CCN(Cc2ccccc2)CC1)c1ccc(F)cc1 (centres unmarked)	5.35
N#C/C(=C\C=C\c1ccccc1)c1nc(-c2ccc(Cl)cc2)cs1	11.7
CC(=O)Nc1c(O)nc(SCc2ccccc2C#N)[nH]c1=O	6.95
CCOC(=O)c1cn(CC(=O)Nc2ccc(OC)cc2OC)nn1	9.07
O=C(COc1ccc(S(=O)(=O)N2CCOCC2)cc1)NC1CCCCC1	4.67
COC(=O)Cc1csc(Nc2ccc(Cl)cc2)n1	7.01
Cc1c(C)c2ccc(OCC(=O)NCCCn3ccnc3)c(C)c2oc1=O	-32.7
CCO[C@@H]1OC(C(=O)NCc2ccccc2)=C[C@H](C)[C@H]1CCCO	4.01
CC(C)n1c(NCCO)nc2ccccc21	25.8
Cc1ccc(-n2nc3c(N4CCC(C(=O)NCc5ccc(C)o5)CC4)nnc(C)c3c2C)cc1	-22.3
CC(C)CC(=O)Nc1c2c(nn1-c1ccc(F)cc1)CSC2	10.1
CCN(CC)CCCC(C)NC(=O)c1cccc(S(=O)(=O)N2CCc3ccccc32)c1.Cl (centres unmarked)	-58.5
CCC(CC)C(=O)Nc1cccc(-c2nc3ccccc3o2)c1	-29
COc1cccc(N2CC(NS(=O)(=O)c3cccnc3)CC2=O)c1 (centres unmarked)	-4.15
COc1cc(NC(=O)CN2C(=O)C(=O)N(C3CCCC3)C2=O)cc(OC)c1	1.58

SMILES	hERG current change (%, negative = inhibition) at 10uM [%]
C#CCOc1ccc2c(C)cc(=O)oc2c1	1.74
Cc1ccccc1C(=O)N1CCC(C(=O)Nc2ccc(S(=O)(=O)N3CCCC3)cc2)CC1	-2.51
CC(C)(C)NC(=O)C(c1cccs1)N(CC1CCCO1)C(=O)Cn1nnc(-c2cccs2)n1 (centres unmarked)	-4.96
Cc1cccc(NC(=O)CSc2nnnn2C)n1	17.6
CC(Oc1ccc(F)cc1)C(O)CCN(C)C (centres unmarked)	26
COc1cc(OC)cc(C(=O)Nc2ccccc2S(=O)(=O)N2CCCC2OC(C)=O)c1 (centres unmarked)	-8.54
O=C(c1nc2ccc(Cl)cn2c1CNCC[C@@H]1C[C@@H]2C=C[C@H]1C2)N1CCCCCCC1	3.14
O=C(C[n+]1cccc(/C=N/O)c1)N(Cc1ccccc1)Cc1ccccc1.[Cl-]	-1.91
COc1ccc(N(C)C(=O)c2cnc(N3CCN(c4ncccn4)CC3)c3ccccc23)cc1	-11.8
N#CCCN1CCN(Cc2cc(-c3ccccc3)ccc2O)CC1	-48.8
COc1ccc(CN(CC(=O)NCc2ccccc2)C(=O)c2csnn2)cc1	-26.6
Cc1ccc(NC(=O)Cn2cc(S(=O)(=O)c3ccccc3)c(=O)c3cc(F)ccc32)cc1	-5.8
O=C(/C=C/c1ccc([N+](=O)[O-])cc1)NCc1ccccn1	-49.2
O=S(=O)(NCc1ccccn1)c1ccc(Cl)s1	14.9
COc1cc(/C=C2\SC(=S)N(NC(=O)c3cccnc3)C2=O)ccc1O	-6.14
CC(C)CNC(=O)COC(=O)C1c2ccccc2Oc2ccccc21	-27.2
Cc1sc2nc3n(c(=O)c2c1C)CCCCC3	-9.59
CC[C@@H](C)[C@H](NC(=O)Cc1c(C)c2cc3c(C)c(C)oc3c(C)c2oc1=O)C(=O)O	-7.43
